Reference: PubChem BioAssay AID686971 (National Center for Advancing Translational Sciences (NCATS), 2013)
“And” between values parts separate entries of the source, which are not always exact repeats. Identical values can stand only once. Screen size: about 360,000 compounds; about 7,500 (2.1%) were called active. The shares of active, inactive and inconclusive entries below differ from those in the screen. The call rests on the fitted dose curve; in most records, active means well fitted cell-killing curve with a large enough effect; inconclusive means small, poorly fitted or top-dose-only effect, or effect the other way, or another doubt; inactive means no such curve, though single readings can be large or run the other way. Where the call is inconclusive, the potency comes from a doubtful curve fit. A structure can be active in one record and inactive in another.

Assay: qHTS for induction of synthetic lethality in tumor cells producing 2HG: qHTS for the HT-1080-IDH1KD cell line;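 on activity, negative = toxicity: 0% = DMSO wells and -100% = cell-free medium wells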
Conditions: HT-1080 IDH1 knockdown viability, ATP luminescence, 48 h; activity, negative = toxicity: at 46.1 µM (top of the series) unless noted
Procedure, shortened: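 HT-1080-IDH1KD cells (IDH1 knocked down), 750/well in RPMI with 5% FBS, treated with compound 48 h at 37 degrees C. Viability by CellTiter-Glo luminescence, normalised to DMSO and no-cell wells; concentration-response curves classed.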
Potency means the concentration at half of the fitted maximal effect; tags describe the fitted curve by direction and shape.

Structure (SMILES)	Potency	activity, negative = toxicity
COc1ccc(/C=C2\SC(=O)N(CCNC(=O)C3=COCCO3)C2=O)cc1	active: 7.31 µM	–
O=C(CSc1n[nH]c(-c2ccco2)n1)Nc1ccc(Br)cc1	inconclusive: 25.9 µM [cytotoxic, partial curve]	–
CN1C(=O)/C(=C\c2ccc(N(C)C)cc2)OC1=S	inconclusive: 9.2 µM [rising, partial curve]	–
COc1ccccc1N(C(=O)c1snc(C(N)=O)c1N)C(C(=O)NCCC(C)C)c1ccco1 (stereo not given)	inactive	–
Cc1ccc(C(=O)/C=C/C(=O)O)cc1	inconclusive: 29.1 µM [cytotoxic, single point]	–
CC(=O)N1N=C(c2ccc(NS(=O)(=O)c3ccccc3)cc2)CC1c1ccco1 (stereo not given)	active: 5.17 µM	–
Cc1ccc(S(=O)(=O)Nc2nc(C)cc(-n3nc(C)cc3C)n2)cc1	active: 15.8 µM	–
Cc1c(C)n(Cc2ccccc2)c2ccc(C(=O)OCCN(C)C)cc12	inconclusive: 23.1 µM [cytotoxic, single point]	–
O=C(Nc1ccc(Cl)c(Cl)c1)Nc1ccc(N2CCCC2)c(S(=O)(=O)Nc2ccccc2Cl)c1	active: 13 µM	–
COc1cc(/C=N/NC(=O)c2ccccc2)ccc1OS(=O)(=O)c1ccccc1	inconclusive: 23.1 µM [cytotoxic, single point]	–
Cc1c(C(=O)N2CCN(Cc3ccc4c(c3)OCO4)CC2)sc2ncnc(N3CCN(c4ccccc4)CC3)c12	inconclusive: 0.461 µM [cytotoxic, full curve, poor fit]	–
CCc1cc2c(C)ccc(C)c2nc1SCC(=O)Nc1c[nH]c(=O)[nH]c1=O	inactive	–
CCN(CC)CCNc1ccc(CO)c2sc3ccccc3c(=O)c12	active: 20.6 µM	–
Cc1cccc(C)c1NC(=O)CN1CCN(C(=O)CNC(=O)c2ccc(-c3ccccc3)cc2)CC1	inconclusive: 14.6 µM [cytotoxic, partial curve]	–
Cn1c(-c2ccccc2)c(/C=N/NC(=O)c2cccnc2)c2ccccc21	inconclusive: 1.84 µM [cytotoxic, partial curve]	–
CCC(C)Sc1cc(-c2nc3ccccn3c2NC2CCCCC2)ccc1OC (stereo not given)	active: 18.4 µM	–
COc1ccc(NC(=O)CN(c2cc(C)cc(C)c2)S(=O)(=O)c2c(C)n[nH]c2C)cc1	–	inconclusive: -21.7% [cytotoxic]
COc1cc(C2c3cc4c(cc3OC(Nc3ccc(C(=O)O)cc3)C2C)OCO4)cc(OC)c1OC (stereo not given)	inconclusive: 0.651 µM [cytotoxic, full curve]	–
Cc1ccccc1C(=O)NC(CC(C)C)C(=O)NCC(C)(C)N1CCOCC1 (stereo not given)	inactive	–
Cc1ccc(S(=O)(=O)/N=C2/NC(=O)/C(=C/c3cccnc3)S2)cc1	inconclusive: 18.4 µM [cytotoxic, single point]	–
CC1Cc2cc(-c3csc(NC(=O)Cc4cccs4)n3)ccc2N1S(C)(=O)=O (stereo not given)	inconclusive: 20.6 µM [cytotoxic, single point]	–
Cc1ccc(S(=O)(=O)N(C)CC(O)Cn2c3ccccc3c3ccccc32)cc1 (stereo not given)	inconclusive: 20.6 µM [cytotoxic, partial curve]	–
CC(/C=N/NC(=O)c1cccc(F)c1)=C\c1ccccc1	inconclusive: 18.4 µM [cytotoxic, single point]	–
O=C(CN1C(=O)NC2(CCc3ccccc32)C1=O)c1c[nH]c2ccccc12 (stereo not given)	inactive	–

Structure (SMILES)	Potency	activity, negative = toxicity
CC1=CC(=Nc2c(C)n(C)n(-c3ccccc3)c2=O)C=C(C)C1=O	inconclusive: 18.4 µM [cytotoxic, single point]	–
CC1=CCC2C(=O)N(C(C)c3ccccc3)C(=O)C2C1 (stereo not given)	–	inconclusive: -1.5%
S=C1Cc2ccccc2N1	active: 5.17 µM	–
CCOC(=O)C1CCCN(C(=O)c2cc3cc(Br)ccc3oc2=O)C1 (stereo not given)	inactive	–
Cc1ccc(NCc2nc3ccccc3n2C)c(C)c1	inactive	–
C(=C\c1ccccc1)/CN1CCN(C(CCc2ccccc2)c2nnnn2C2CCCC2)CC1 (stereo not given)	inconclusive: 14.6 µM [cytotoxic, partial curve, poor fit]	–
COC(=O)C1=C(C(=O)OC)[C@@H]2N(Cc3ccccc3)c3ccccc3[C@@]23C[C@@H](C(=O)OC)N(C(=O)c2cccs2)C3=N1	inconclusive: 29.1 µM [cytotoxic, single point]	–
COc1cc(/C=C/C(=O)c2c(O)ccc3c(C)cc(=O)oc23)ccc1O	inconclusive: 35.5 µM [cytotoxic, single point] and inconclusive: 29.1 µM [cytotoxic, single point]	–
COc1ccc(-c2ccc(C(=O)Nc3cccc(C(C)=O)c3)c3occc23)c(C)c1	inconclusive: 18.4 µM [cytotoxic, single point]	–
COc1ccc(CCNC(=O)COC(=O)c2sc(C)nc2C)cc1	inactive	–
COc1cc(N2CCCC2)c(OC)cc1/C=C(/C#N)c1ccc(Br)cc1	inactive	–
COC(=O)c1ccc(NS(=O)(=O)NC(=O)c2c[nH]c3ccccc23)cc1	inconclusive: 20.6 µM [cytotoxic, single point]	–
O=C(Nc1scc(-c2ccc(Br)cc2)c1C(=O)O)c1ccccc1F	inconclusive: 23.1 µM [cytotoxic, single point]	–
Cn1nc(-c2ccccn2)nc2c(=O)n(C)c(=O)nc1-2	active: 1.64 µM	–
Cc1cc(Cl)ccc1NC(=S)NCC(C)C	inactive	–
CCC(C)(C)n1nnnc1C(c1ccccc1)N1CCN(C2CCCC2)CC1 (stereo not given)	inactive	–
N#C/C(=C(/O)c1ccc(C(=O)c2ccccc2)cc1)c1nc2ccccc2[nH]1	inactive	–
CC(=O)Oc1ccc(C(=O)Nc2cc(C)ccc2NC(=O)COc2ccccc2)cc1	inactive	–
CN(Cc1cnc2nc(N)nc(N)c2n1)c1ccc(C(=O)N[C@@H](CCC(=O)O)C(=O)O)cc1	active: 0.0461 µM	–
Cc1cc(NC(=O)CSc2nnc(-c3ccccc3F)n2N)no1	inactive	–
O=C(N/N=C/c1ccc(O)c(O)c1O)/C(=C/c1ccc([N+](=O)[O-])cc1)NC(=O)c1ccccc1	active: 14.6 µM	–
CCOC(=O)N1CCN(S(=O)(=O)c2ccc(C(=O)NNc3nc4cc(C)cc(C)c4s3)cc2)CC1	inconclusive: 14.6 µM [cytotoxic, partial curve]	–
COc1ccc(NC(=S)Nc2cc(-c3ccccc3)[nH]n2)cc1Cl	inconclusive: 35.5 µM [cytotoxic, single point]	–
CC(C)(C)c1ccc(/C=N/NC(=O)Cc2c[nH]c3ccccc23)cc1	inconclusive: 32.6 µM [cytotoxic, single point]	–

Structure (SMILES)	Potency	activity, negative = toxicity
COC(=O)c1ccc(C2c3[nH]c4ccccc4c3C[C@H]3C(=O)N(C4CCN(Cc5ccccc5)CC4)CC(=O)N23)cc1 (stereo not given in full)	inconclusive: 29.1 µM [cytotoxic, single point]	–
COC(=O)[C@H]1C[C@@]2(O)CN(S(=O)(=O)c3ccc(C)cc3)C[C@@]2(OC(=O)NC2CC2)C[C@H]1C(=O)OC	inactive	–
CC(=O)CC[N+](C)(C)C	inconclusive: 29.1 µM [cytotoxic, single point]	–
COc1ccc(C(=O)c2sc(Nc3ccccc3)nc2C)cc1	–	inconclusive: -33.6% [cytotoxic]
Nc1ccc(NC(=O)c2cccc(C(=O)Nc3ccc(N)cc3Cl)c2)c(Cl)c1	active: 16.4 µM	–
COc1ccc(C(CCN(Cc2ccc(OC)c(OC)c2)C(=O)CCl)c2ccccc2)cc1 (stereo not given)	active: 16.4 µM	–
COc1ccccc1CNc1nc(NCc2ccc(C)cc2C)c2sccc2n1	inconclusive: 20.6 µM [cytotoxic, single point]	–
O=C(Nc1ccccc1)Oc1ccc[nH]c1=O	inconclusive: 18.4 µM [cytotoxic, single point]	–
COc1cc(OC)cc(OC2(C)CCN(Cc3ccc(OC(C)C)cc3)C2)c1 (stereo not given)	inconclusive: 32.6 µM [cytotoxic, single point]	–
CCN(c1cccc(C(F)(F)F)c1)S(=O)(=O)c1ccc2c(c1)CCN2C(=O)C1CC1	inconclusive: 8.91 µM [cytotoxic, partial curve]	–
CCCC(=O)Nc1ccc(-c2csc(N/N=C\c3ccncc3)n2)cc1	inconclusive: 10.3 µM [cytotoxic, partial curve]	–
O=c1cc2c(nn1Cc1ccc(Cl)cc1Cl)-c1ccccc1CC2	inconclusive: 29.1 µM [cytotoxic, single point]	–
CNC(=O)C[C@@H]1C(=O)N(c2ccc(OC)cc2)CC1(C)C	inactive	–
CCN(CC)CCNC(=O)Cn1c(=O)c2cccn2c2ccc(F)cc21	inactive	–
O=C(Nc1cccc(NC(=O)c2ccc([N+](=O)[O-])o2)c1)c1ccco1	active: 10.3 µM	–
COc1ccc(NC(=S)NNC(=O)OC(C)(C)C)cc1OC	inconclusive: 35.5 µM [cytotoxic, single point]	–
COc1cc(Cn2c3ccc(NC(=O)CC(C)c4ccccc4)cc3c(=O)n2C)ccc1F (stereo not given)	inconclusive: 29.1 µM [cytotoxic, single point]	–
Cc1ccc(NC(=S)NCCc2c[nH]c3ccccc23)cc1	inconclusive: 29.1 µM [cytotoxic, single point]	–
CC1(C)CC(=O)c2c(O)cc(OCc3ccc(Br)cc3)cc2O1	inconclusive: 17.8 µM [cytotoxic, single point]	–
CC(=O)c1c(C)[nH]c(C(=O)OCC(=O)NCCCc2ccccc2)c1C	inactive	–
CCN(CC)C(=O)[C@H]1CC(CC(=O)NCc2ccc(OC)c(OC)c2)C(=O)N2CCc3c([nH]c4ccccc34)[C@]12C (stereo not given in full)	inactive	–
CCCCOc1ccc(C(=O)NNC(=S)NC(=O)CC)cc1	inconclusive: 7.31 µM [cytotoxic, partial curve]	–
